# Test results: patent US20090240027A1, “INTERMEDIATES FOR MACROCYCLIC COMPOUNDS” (Tranzyme Pharma Inc., priority 2003, published 2009)
# Biological target: T1, human motilin receptor (Homo sapiens, UniProt O43193)
# Assay: Competitive radioligand binding assay (Method B1)
# Set-up: purchased PerkinElmer 6110544; host or cells: CHO cells, stably transfected (membranes)
# Conditions: not given
# Experimental: Competitive Radioligand Binding Assay (Motilin Receptor)
# • Membranes were prepared from CHO cells stably transfected with the human motilin receptor and utilized at a quantity of 1.5 μg/assay point.
# Final Test Concentrations (N=11) for Compounds:
# Compounds were provided frozen on dry ice at a stock concentration of 10 mM diluted in 100% DMSO and stored at −20° C. until the day of testing. On the test day, compounds were allowed to thaw at room temperature and than diluted in assay buffer according to the desired test concentrations. Under these conditions, the maximum final DMSO concentration in the assay was 0.5%.
# Plates are sealed with TopSeal-A, vortexed gently and incubated at room temperature for 2 hours. The reaction is arrested by filtering samples through pre-soaked (0.3% polyethyleneimine, 2 h) Multiscreen Harvest plates using a Tomtec® Harvester (Tomtec, Hamden, Conn.)), washed 9 times with 500 μL of cold 50 mM Tris-HCl (pH 7.4), and than plates are air-dried in a fumehood for 30 minutes. A bottom seal is applied to the plates prior to the addition of 25 μL of MicroScint-0™ to each well.
# Data are analyzed by GraphPad™ Prism (GraphPad Software, San Diego, Calif.) using a variable slope non-linear regression analysis.
# where total and non-specific binding represent the cpm obtained in the absence or presence of 1 μM motilin, respectively.
# T1 sequence (O43193 whole entry): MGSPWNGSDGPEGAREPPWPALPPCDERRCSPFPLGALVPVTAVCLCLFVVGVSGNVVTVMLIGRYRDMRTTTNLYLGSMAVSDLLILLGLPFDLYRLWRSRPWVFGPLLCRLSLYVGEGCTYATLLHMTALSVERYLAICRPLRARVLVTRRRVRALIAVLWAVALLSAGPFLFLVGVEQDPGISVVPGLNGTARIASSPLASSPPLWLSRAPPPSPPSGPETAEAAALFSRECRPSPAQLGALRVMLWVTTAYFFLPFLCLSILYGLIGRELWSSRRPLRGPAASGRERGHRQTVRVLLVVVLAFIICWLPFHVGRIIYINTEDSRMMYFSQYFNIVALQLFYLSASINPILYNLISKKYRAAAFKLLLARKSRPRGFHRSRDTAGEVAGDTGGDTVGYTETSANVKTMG
row,SMILES,Ki [nM]
1,"CC[C@H](C)[C@H](NC(=O)[C@@H]1CCCN1C(=O)[C@@H](NC(=O)[C@@H](N)Cc1ccccc1)C(C)C)C(=O)N[C@@H](Cc1ccccc1)C(=O)N[C@H](C(=O)N[C@@H](Cc1ccc(O)cc1)C(=O)NCC(=O)N[C@@H](CCC(=O)O)C(=O)N[C@@H](CC(C)C)C(=O)N[C@@H](CCC(N)=O)C(=O)N[C@@H](CCCNC(=N)N)C(=O)N[C@@H](CCSC)C(=O)N[C@@H](CCC(N)=O)C(=O)N[C@@H](CCC(=O)O)C(=O)N[C@@H](CCCCN)C(=O)N[C@@H](CCC(=O)O)C(=O)N[C@@H](CCCNC(=N)N)C(=O)N[C@@H](CC(N)=O)C(=O)N[C@@H](CCCCN)C(=O)NCC(=O)N[C@@H](CCC(N)=O)C(=O)O)[C@@H](C)O [Motilin, motilin, reference compound]",0.6

# Same assay, conditions: Radioligand competitive binding assay, Method B1; values reported as ranges; read-out: Ki (binding activity)
row,Ki [nM],SMILES
1,100 to 1000,CC(=O)NCC1NC(=O)C(C(C)C)NC(=O)C(Cc2ccc(Cl)cc2)NCCOc2ccccc2CCCNC1=O (stereo not shown) [Compound 203]
2,100 to 1000,CC(C)CC1NC(=O)C(C(C)C)NC(=O)C(Cc2cccc3ccccc23)N(Cc2ccccc2)CCOc2ccccc2CCCNC1=O (stereo not shown) [Compound 227]
3,1 to 100,CC(C)[C@H]1NC(=O)[C@@H](Cc2cccc(Cl)c2)NCCOc2ccccc2CCCNC(=O)[C@H](CO)NC1=O [Compound 181]
4,1 to 100,CCC[C@@H]1NC(=O)[C@@H](C(C)C)NC(=O)[C@@H](Cc2ccc(O)c(C(C)(C)C)c2)NCCOc2ccccc2CCCNC1=O [Compound 222]
5,1 to 100,CC(C)[C@H]1NC(=O)[C@@H](Cc2ccc(Cl)cc2)NCCOc2ccccc2CCCNC(=O)[C@H](CN(C)C)NC1=O [Compound 211]
6,100 to 1000,CC(C)C1NC(=O)C(Cc2ccc(O)cc2)NCCOc2ccccc2CCCNC(=O)C(CNC(=N)N)NC1=O (stereo not shown) [Compound 208]
7,1 to 100,CCC[C@@H]1NC(=O)[C@@H](C(C)C)NC(=O)[C@@H](Cc2ccsc2)NCCOc2ccccc2CCCNC1=O [Compound 168]
8,100 to 1000,CC(C)C1NC(=O)C(Cc2ccc(Cl)cc2)NCCOc2ccccc2CCCNC(=O)C(CNS(C)(=O)=O)NC1=O (stereo not shown) [Compound 206]
9,100 to 1000,CC(C)C1NC(=O)C(Cc2ccc(Cl)cc2)NCCOc2cccnc2CCCNC(=O)C(CN)NC1=O (stereo not shown) [Compound 185]
10,1 to 100,CCC[C@@H]1NC(=O)[C@@H](C(C)C)NC(=O)[C@@H](Cc2ccc(OC)cc2)NC(C)COc2ccccc2CCCNC1=O (stereo partly shown) [Compound 195]
11,1 to 100,CC(C)NC[C@@H]1NC(=O)[C@@H](C(C)C)NC(=O)[C@@H](Cc2ccc(Cl)cc2)NCCOc2ccccc2CCCNC1=O [Compound 212]
12,100 to 1000,CC(=O)N1CCOc2ccccc2CCCNC(=O)C(CC(C)C)NC(=O)C(C(C)C)NC(=O)C1Cc1cccc2ccccc12 (stereo not shown) [Compound 225]
13,1 to 100,COc1cccc(C[C@H]2NCCOc3ccccc3CCCNC(=O)[C@H](CC3CC3)NC(=O)[C@@H](C(C)C)NC2=O)c1 [Compound 191]
14,100 to 1000,CC(C)C1NC(=O)C(Cc2cccs2)NCCOc2ccccc2CCCNC(=O)C(CO)NC1=O (stereo not shown) [Compound 180]
15,100 to 1000,CC(C)C1NC(=O)C(Cc2ccc(O)cc2)NCCOc2ccccc2CCCNC(=O)C(CN(C)C)NC1=O (stereo not shown) [Compound 215]
16,100 to 1000,CCCC1NC(=O)C(C(C)C)NC(=O)C(Cc2ccc(OC)cc2)NCCCc2c(c(=O)n(C)c(=O)n2C)CCCNC1=O (stereo not shown) [Compound 194]
17,1000 to 10000,CC(C)CC1NC(=O)C(C(C)C)NC(=O)C(Cc2cccc3ccccc23)N(Cc2nccs2)CCOc2ccccc2CCCNC1=O (stereo not shown) [Compound 226]
18,1 to 100,CC(C)[C@H]1NC(=O)[C@@H](Cc2ccc(Cl)c(Cl)c2)NCCOc2ccccc2CCCNC(=O)[C@H](CC2CC2)NC1=O [Compound 192]
19,1000 to 10000,CCCC1NC(=O)C(C(C)C)NC(=O)C(Cc2ccc(O)cc2)N(C(C)=O)CCOc2ccccc2CCCNC1=O (stereo not shown) [Compound 223]
20,1 to 100,CCC[C@@H]1NC(=O)[C@@H](C(C)C)NC(=O)[C@@H](Cc2csc3ccccc23)NCCOc2ccccc2CCCNC1=O [Compound 167]
21,100 to 1000,CC(C)C1NC(=O)C(Cc2ccc(O)cc2)NCCOc2ccccc2CCCNC(=O)C(Cc2c[nH]cn2)NC1=O (stereo not shown) [Compound 186]
22,1 to 100,CC(C)[C@H]1NC(=O)[C@@H](Cc2csc3ccccc23)NCCOc2ccccc2CCCNC(=O)[C@H](CC2CC2)NC1=O [Compound 190]
23,1 to 100,CC1COc2ccccc2CCCNC(=O)[C@H](CC2CC2)NC(=O)[C@@H](C(C)C)NC(=O)[C@@H](Cc2cccc(Cl)c2)N1 (stereo partly shown) [Compound 198]

row,Ki [nM],SMILES
1,100 to 1000,COc1ccc(CC2NCCOc3ccccc3CCCNC(=O)C(CCO)NC(=O)C(C(C)C)NC2=O)cc1 (stereo not shown) [Compound 214]
2,1000 to 10000,CC(=O)NCC1NC(=O)C(C(C)C)NC(=O)C(Cc2ccc(O)cc2)NCCOc2ccccc2CCCNC1=O (stereo not shown) [Compound 209]
3,100 to 1000,CC(C)C1NC(=O)C(Cc2cccc3ccccc23)NCCOc2cccnc2CCCNC(=O)C(CN)NC1=O (stereo not shown) [Compound 184]
4,100 to 1000,CC(C)CC1C(=O)NCCCc2ccccc2OCCNC(Cc2cccc(Cl)c2)C(=O)NC(C(C)C)C(=O)N1C (stereo not shown) [Compound 205]
5,100 to 1000,CC(C)C1NC(=O)C(Cc2ccc(F)cc2)NCCOc2ccccc2CCCNC(=O)C(CO)NC1=O (stereo not shown) [Compound 183]
6,1 to 100,CC(C)[C@H]1NC(=O)[C@@H](Cc2cccc3ccccc23)NCCOc2ccccc2CCCNC(=O)[C@H](CC2CC2)NC1=O [Compound 142]
7,1 to 100,CC(C)[C@H]1NC(=O)[C@@H](Cc2ccc(F)c(F)c2)NCCOc2ccccc2CCCNC(=O)[C@H](CC2CC2)NC1=O [Compound 193]
8,1 to 100,CCC[C@@H]1NC(=O)[C@@H](C(C)C)NC(=O)[C@@H](Cc2cccc(C(F)(F)F)c2)NCCOc2ccccc2CCCNC1=O [Compound 187]
9,100 to 1000,CCCC1NC(=O)C(C(C)C)NC(=O)C(Cc2ccc([N+](=O)[O-])cc2)NCCOc2ccccc2CCCNC1=O (stereo not shown) [Compound 189]
10,1 to 100,CCCC1NC(=O)C(C(C)C)NC(=O)C(Cc2cccc(OC)c2)NCCOc2ccccc2C=CCNC1=O (stereo not shown) [Compound 202]
11,1 to 100,CCCC1NC(=O)C(C(C)C)NC(=O)C(Cc2cccc(F)c2)NCCOc2ccccc2CCCNC1=O (stereo not shown) [Compound 188]
12,1 to 100,CC(C)[C@H]1NC(=O)[C@@H](Cc2ccc(Cl)cc2)NCCOc2ccccc2CCCNC(=O)[C@H](CN=C(N)N)NC1=O [Compound 204]
13,1 to 100,CC(C)[C@H]1NC(=O)[C@@H](Cc2cccc(Cl)c2)NCCOc2ccccc2/C=C/CNC(=O)[C@H](CC2CC2)NC1=O [Compound 200]
14,100 to 1000,CCCC1NC(=O)C(C(C)C)NC(=O)C(Cc2cccc(Cl)c2)NCCOc2cc(F)ccc2CCCNC1=O (stereo not shown) [Compound 221]
15,100 to 1000,CC(C)C1NC(=O)C(Cc2cccc(Cl)c2)NCCOc2ccc(F)cc2CCCNC(=O)C(CC2CC2)NC1=O (stereo not shown) [Compound 217]
16,1 to 100,CCC[C@@H]1NC(=O)[C@@H](C(C)C)NC(=O)[C@@H](Cc2cccc(Cl)c2)NCCOc2ccccc2C(C)CCNC1=O (stereo partly shown) [Compound 218]
17,100 to 1000,CCCC1NC(=O)C(C(C)C)NC(=O)C(Cc2cc(I)c(O)c(I)c2)NCCOc2ccccc2CCCNC1=O (stereo not shown) [Compound 213]
18,100 to 1000,CCCC1NC(=O)C(C(C)C)NC(=O)C(Cc2cccc3ccccc23)NCCOc2ccccc2C=CCNC1=O (stereo not shown) [Compound 201]
19,100 to 1000,CC(C)C1NC(=O)C(Cc2cccc(Cl)c2)NCCC2OC(CNC(=O)C(CC3CC3)NC1=O)C(O)C2O (stereo not shown) [Compound 199]
20,100 to 1000,CC(C)C1NC(=O)C(Cc2ccc(Cl)cc2)NCCOc2ccccc2CCCNC(=O)C(CNC(N)=O)NC1=O (stereo not shown) [Compound 207]
21,1 to 100,CC(C)[C@H]1NC(=O)[C@@H](Cc2ccc(Cl)cc2)NCCOc2ccccc2CCCNC(=O)[C@H](CO)NC1=O [Compound 182]
22,100 to 1000,CC(C)CC1NC(=O)C(C(C)C)NC(=O)C(Cc2cccc3ccccc23)N(C)CCOc2ccccc2CCCNC1=O (stereo not shown) [Compound 224]
23,100 to 1000,CCCC1NC(=O)C(C(C)C)NC(=O)C(Cc2cccc(Cl)c2)NCCOc2ccc(Cl)cc2CCCNC1=O (stereo not shown) [Compound 219]

# Same assay, conditions: Table 4; [125I]-motilin competition; read-out: Binding (Ki)
row,Ki [nM],SMILES
1,1 to 100,CCC[C@@H]1NC(=O)[C@@H](C(C)C)NC(=O)[C@@H](Cc2ccsc2)NCCOc2ccccc2CCCNC1=O [Compound 168]
2,1 to 100,CC(C)NC[C@@H]1NC(=O)[C@@H](C(C)C)NC(=O)[C@@H](Cc2ccc(Cl)cc2)NCCOc2ccccc2CCCNC1=O [Compound 212]
3,1 to 100,CCC[C@@H]1NC(=O)[C@@H](C(C)C)NC(=O)[C@@H](Cc2csc3ccccc23)NCCOc2ccccc2CCCNC1=O [Compound 167]
4,1 to 100,CC(C)[C@H]1NC(=O)[C@@H](Cc2cccc3ccccc23)NCCOc2ccccc2CCCNC(=O)[C@H](CC2CC2)NC1=O [Compound 142]

# Biological target: T1, human motilin receptor
# Assay: Aequorin functional assay (Method B2)
# Type: cell-based
# Set-up: host or cells: CHO-K1 cells co-expressing Galpha16 and mitochondrially targeted aequorin
# Conditions: antagonist testing against motilin at EC80 (0.5 nM)
row,IC50 [nM],SMILES
1,1 to 100,CCC[C@@H]1NC(=O)[C@@H](C(C)C)NC(=O)[C@@H](Cc2ccsc2)NCCOc2ccccc2CCCNC1=O [Compound 168]
2,1 to 100,CC(C)NC[C@@H]1NC(=O)[C@@H](C(C)C)NC(=O)[C@@H](Cc2ccc(Cl)cc2)NCCOc2ccccc2CCCNC1=O [Compound 212]
3,1 to 100,CCC[C@@H]1NC(=O)[C@@H](C(C)C)NC(=O)[C@@H](Cc2csc3ccccc23)NCCOc2ccccc2CCCNC1=O [Compound 167]
4,100 to 1000,CC(C)[C@H]1NC(=O)[C@@H](Cc2cccc3ccccc23)NCCOc2ccccc2CCCNC(=O)[C@H](CC2CC2)NC1=O [Compound 142]
